Results as given in the supplement of paper PMC4604168 (melanoma cell lines).
This is one part of the list. Single values are uncertain, as repeats are few or missing.

Columns and labels:
Experiment in all cases: cell count relative to DMSO control; melanoma cells; higher = more viable cells
Settings in all cases: library dose: low library concentration; 72 h
MZ2-MEL = system: MZ2-MEL
MeWo = system: MeWo
RPMI7951 = system: RPMI7951
RVH-421 = system: RVH-421
SkMel28 = system: SkMel28
SkMel30 = system: SkMel30
SkMel5 = system: SkMel5
UACC257 = system: UACC257
UACC62 = system: UACC62
WM115 = system: WM115
WM1716 = system: WM1716
WM1745 = system: WM1745
WM3526 = system: WM3526
WM3619 = system: WM3619
WM451Lu = system: WM451Lu
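Also: cell number obtained by counting DAPI-stained nuclei in high-throughput microscope images with image analysis software, screen run in 1,536-well plates.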

Compound | cell count (MZ2-MEL) [%] | cell count (MeWo) [%] | cell count (RPMI7951) [%] | cell count (RVH-421) [%] | cell count (SkMel28) [%] | cell count (SkMel30) [%] | cell count (SkMel5) [%] | cell count (UACC257) [%] | cell count (UACC62) [%] | cell count (WM115) [%] | cell count (WM1716) [%] | cell count (WM1745) [%] | cell count (WM3526) [%] | cell count (WM3619) [%] | cell count (WM451Lu) [%]
CO[C@H]1C[C@@H]2CC[C@@H](C)[C@@](O)(O2)C(=O)C(=O)N2CCCC[C@H]2C(=O)O[C@H]([C@H](C)C[C@@H]2CC[C@@H](OCCO)[C@H](OC)C2)CC(=O)[C@H](C)/C=C(\C)[C@@H](O)[C@@H](OC)C(=O)[C@H](C)C[C@H](C)/C=C/C=C/C=C/1C [everolimus] + COc1cc(N2CCC(N3CCN(C)CC3)CC2)ccc1Nc1ncc(Cl)c(Nc2ccccc2S(=O)(=O)C(C)C)n1 [NVP-TAE684] (first compound 0.02 µM, partner dose 0.08 µM) | 78.4 | 63.4 | 77.1 | 82.3 | 62.8 | 55.7 | 80.4 | 57.8 | 66.5 | 82.3 | 76.9 | 73 | 56.9 | 48 | 61.3
CO[C@H]1C[C@@H]2CC[C@@H](C)[C@@](O)(O2)C(=O)C(=O)N2CCCC[C@H]2C(=O)O[C@H]([C@H](C)C[C@@H]2CC[C@@H](OCCO)[C@H](OC)C2)CC(=O)[C@H](C)/C=C(\C)[C@@H](O)[C@@H](OC)C(=O)[C@H](C)C[C@H](C)/C=C/C=C/C=C/1C [everolimus] + Oc1cc(-c2nc(-c3ccccc3)[nH]c2-c2ccncc2)ccc1Cl [L779450] (first compound 0.02 µM, partner dose 0.2 µM) | 66.6 | 68.4 | 77.4 | 70.8 | 45.8 | 74.5 | 95 | 57.2 | 61.5 | 65 | 80.7 | 74.2 | 62.4 | 55.3 | 70.3
CO[C@H]1C[C@@H]2CC[C@@H](C)[C@@](O)(O2)C(=O)C(=O)N2CCCC[C@H]2C(=O)O[C@H]([C@H](C)C[C@@H]2CC[C@@H](OCCO)[C@H](OC)C2)CC(=O)[C@H](C)/C=C(\C)[C@@H](O)[C@@H](OC)C(=O)[C@H](C)C[C@H](C)/C=C/C=C/C=C/1C [everolimus] + Clc1ccc(Nc2nnc(Cc3ccncc3)c3ccccc23)cc1 [vatalanib] (first compound 0.02 µM, partner dose 2 µM) | 73.9 | 50.9 | 78.4 | 69.3 | 54.4 | 67 | – | – | 60.1 | 72.3 | 62.7 | 73.7 | 59.5 | 67 | 90.5
CO[C@H]1C[C@@H]2CC[C@@H](C)[C@@](O)(O2)C(=O)C(=O)N2CCCC[C@H]2C(=O)O[C@H]([C@H](C)C[C@@H]2CC[C@@H](OCCO)[C@H](OC)C2)CC(=O)[C@H](C)/C=C(\C)[C@@H](O)[C@@H](OC)C(=O)[C@H](C)C[C@H](C)/C=C/C=C/C=C/1C [everolimus] + CO[C@@H]1[C@H](N(C)C(=O)c2ccccc2)C[C@H]2O[C@]1(C)n1c3ccccc3c3c4c(c5c6ccccc6n2c5c31)C(=O)NC4 [Midostaurin] (first compound 0.02 µM, partner dose 0.08 µM) | 68.6 | 63.9 | 70.7 | 84.9 | 48.1 | 65.6 | 93.1 | 58.3 | 74.2 | 70.9 | 62.8 | 86.8 | 84.2 | 83.4 | 65.4
CO[C@H]1C[C@@H]2CC[C@@H](C)[C@@](O)(O2)C(=O)C(=O)N2CCCC[C@H]2C(=O)O[C@H]([C@H](C)C[C@@H]2CC[C@@H](OCCO)[C@H](OC)C2)CC(=O)[C@H](C)/C=C(\C)[C@@H](O)[C@@H](OC)C(=O)[C@H](C)C[C@H](C)/C=C/C=C/C=C/1C [everolimus] + C[C@]1(c2nc3c(C(N)=O)cccc3[nH]2)CCCN1 [Veliparib] (first compound 0.02 µM, partner dose 1.4 µM) | 78.3 | 69.5 | 86.3 | 78.6 | 54.9 | 59 | – | – | 64.8 | 77.6 | 75.5 | 70.3 | 61.2 | 83.9 | 87.4
CO[C@H]1C[C@@H]2CC[C@@H](C)[C@@](O)(O2)C(=O)C(=O)N2CCCC[C@H]2C(=O)O[C@H]([C@H](C)C[C@@H]2CC[C@@H](OCCO)[C@H](OC)C2)CC(=O)[C@H](C)/C=C(\C)[C@@H](O)[C@@H](OC)C(=O)[C@H](C)C[C@H](C)/C=C/C=C/C=C/1C [everolimus] + Cn1c(Nc2ccc(C(F)(F)F)cc2)nc2cc(Oc3ccnc(-c4ncc(C(F)(F)F)[nH]4)c3)ccc21 [CHIR265] (first compound 0.02 µM, partner dose 0.08 µM) | 50.9 | 60.2 | 58.1 | 69.7 | 36.9 | 40.8 | – | – | 45.4 | 52.4 | 60 | 71.7 | 45.7 | 74.9 | 81.9
CO[C@H]1C[C@@H]2CC[C@@H](C)[C@@](O)(O2)C(=O)C(=O)N2CCCC[C@H]2C(=O)O[C@H]([C@H](C)C[C@@H]2CC[C@@H](OCCO)[C@H](OC)C2)CC(=O)[C@H](C)/C=C(\C)[C@@H](O)[C@@H](OC)C(=O)[C@H](C)C[C@H](C)/C=C/C=C/C=C/1C [everolimus] + C=C(c1ccc(C(=O)O)cc1)c1cc2c(cc1C)C(C)(C)CCC2(C)C [Bexarotene] (first compound 0.02 µM, partner dose 2 µM) | 81.4 | 64.8 | 77.1 | 76.5 | 37 | 62.4 | – | – | 58.7 | 85.8 | 64.1 | 88.6 | 56.9 | 88.2 | 74.9
CO[C@H]1C[C@@H]2CC[C@@H](C)[C@@](O)(O2)C(=O)C(=O)N2CCCC[C@H]2C(=O)O[C@H]([C@H](C)C[C@@H]2CC[C@@H](OCCO)[C@H](OC)C2)CC(=O)[C@H](C)/C=C(\C)[C@@H](O)[C@@H](OC)C(=O)[C@H](C)C[C@H](C)/C=C/C=C/C=C/1C [everolimus] + Nc1cccc2c1CN(C1CCC(=O)NC1=O)C2=O [lenalidomide] (first compound 0.02 µM, partner dose 1 µM) | 71.6 | 71 | 78.9 | 90 | 56.2 | 83.6 | – | – | 61.8 | 74.3 | 58.3 | 87.4 | 72.6 | 75.3 | 77.1
CO[C@H]1C[C@@H]2CC[C@@H](C)[C@@](O)(O2)C(=O)C(=O)N2CCCC[C@H]2C(=O)O[C@H]([C@H](C)C[C@@H]2CC[C@@H](OCCO)[C@H](OC)C2)CC(=O)[C@H](C)/C=C(\C)[C@@H](O)[C@@H](OC)C(=O)[C@H](C)C[C@H](C)/C=C/C=C/C=C/1C [everolimus] + Nc1ccn([C@@H]2O[C@H](CO)[C@@H](O)C2(F)F)c(=O)n1 [gemcitabine] (first compound 0.02 µM, partner dose 0.0004 µM) | 66.1 | 68 | 91.4 | 68.4 | 55.1 | 68.8 | – | – | 67.3 | 83.6 | 77.3 | 72.7 | 70.4 | 58.1 | 81.2
CO[C@H]1C[C@@H]2CC[C@@H](C)[C@@](O)(O2)C(=O)C(=O)N2CCCC[C@H]2C(=O)O[C@H]([C@H](C)C[C@@H]2CC[C@@H](OCCO)[C@H](OC)C2)CC(=O)[C@H](C)/C=C(\C)[C@@H](O)[C@@H](OC)C(=O)[C@H](C)C[C@H](C)/C=C/C=C/C=C/1C [everolimus] + COc1ccc(Cl)c(Nc2nc3ccccc3nc2NS(=O)(=O)c2cccc(NC(=O)C(C)(C)N)c2)c1 [XL147] (first compound 0.02 µM, partner dose 0.8 µM) | 64.9 | 64.6 | 87.3 | 76.1 | 48.5 | 82.1 | – | – | 61.4 | 92.4 | 76.9 | 99.7 | 55.3 | 83.7 | 94.2
CO[C@H]1C[C@@H]2CC[C@@H](C)[C@@](O)(O2)C(=O)C(=O)N2CCCC[C@H]2C(=O)O[C@H]([C@H](C)C[C@@H]2CC[C@@H](OCCO)[C@H](OC)C2)CC(=O)[C@H](C)/C=C(\C)[C@@H](O)[C@@H](OC)C(=O)[C@H](C)C[C@H](C)/C=C/C=C/C=C/1C [everolimus] + COc1ccc(-c2ccc3c(N4CCOCC4)nc(N4C[C@@H](C)O[C@@H](C)C4)nc3n2)cc1CO [KU0063794] (first compound 0.02 µM, partner dose 0.02 µM) | 76.5 | 68.2 | 59.1 | 83.9 | 53.7 | 67.9 | 96.6 | 60.2 | 61.3 | 75.9 | 70.7 | 94.7 | 54.8 | 66.6 | 89.5
CO[C@H]1C[C@@H]2CC[C@@H](C)[C@@](O)(O2)C(=O)C(=O)N2CCCC[C@H]2C(=O)O[C@H]([C@H](C)C[C@@H]2CC[C@@H](OCCO)[C@H](OC)C2)CC(=O)[C@H](C)/C=C(\C)[C@@H](O)[C@@H](OC)C(=O)[C@H](C)C[C@H](C)/C=C/C=C/C=C/1C [everolimus] + O=C(O)c1ccc(-c2c[nH]c3ncc(-c4ccccc4)cc23)cc1C1CCCC1 [GSK650394] (first compound 0.02 µM, partner dose 0.16 µM) | 70.4 | 71.8 | 84.6 | 93.4 | 49.6 | 75.2 | 109 | 46.6 | 72.1 | 82 | 80.6 | 102 | 86.9 | 81.7 | 85.4
CO[C@H]1C[C@@H]2CC[C@@H](C)[C@@](O)(O2)C(=O)C(=O)N2CCCC[C@H]2C(=O)O[C@H]([C@H](C)C[C@@H]2CC[C@@H](OCCO)[C@H](OC)C2)CC(=O)[C@H](C)/C=C(\C)[C@@H](O)[C@@H](OC)C(=O)[C@H](C)C[C@H](C)/C=C/C=C/C=C/1C [everolimus] + C=CCNC1=C2C[C@@H](C)C[C@H](OC)[C@H](O)[C@@H](C)/C=C(\C)[C@H](OC(N)=O)[C@@H](OC)/C=C\C=C(/C)C(=O)NC(=CC1=O)C2=O [Tanespimycin] (first compound 0.02 µM, partner dose 0.002 µM) | 71 | 67 | 69.5 | 93.7 | 54.1 | 64.5 | – | – | 66.3 | 67.9 | 78.1 | 70 | 58.4 | 78.1 | 74.1
